Measured values published in PubChem BioAssay AID686979 (National Center for Advancing Translational Sciences (NCATS), 2013).
Where “and” joins values, the source holds several entries; their conditions need not be identical. Equal entries are not always repeated. Hit rate of the full screen: of about 420,000 compounds, about 50,000 (12%) were called active. The shares of active, inactive and inconclusive entries below differ from those in the screen. Calls come from the whole dose curve; as a rule, active = well fitted inhibition curve with a large enough effect; inconclusive = small, poorly fitted or top-dose-only effect; inactive = flat fitted curve, though single readings scatter. Where the call is inconclusive, the potency comes from a doubtful curve fit. Some structures have more than one record in an assay (separate samples or runs), and their calls can disagree.

Assay: qHTS for Inhibitors of human tyrosyl-DNA phosphodiesterase 1 (TDP1): qHTS in cells in presence of CPT; note: nearly all actives have a fitted effect of over 55% in size
Settings: chicken DT40 Tdp1-/-;hTDP1 cells + 20 nM CPT, ATP luminescence, 48 h; activity change, negative = growth inhibition: at 46.2 µM (top of the series)
Summary of the method: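 Cell growth measured by CellTiter-Glo luminescence after a minimum 48 h, 37 C compound exposure with 20 nM CPT in Tdp1-knockout DT40 cells stably expressing hTDP1, seeded 400/well; qHTS titration format.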
% is set by controls: 0 for no effect and ±100 for the full control effect; potency is the fitted concentration of half-maximal effect; tags give direction and shape of the fitted curve.

| SMILES | Potency | activity change, negative = growth inhibition |
| --- | --- | --- |
| Cc1csc2nc(COc3ccccc3NC(=O)c3ccccc3Cl)cc(=O)n12 | active: 4.61 µM |  |
| Cc1ccc(-n2ncc(C(=O)Nc3c(Cl)cccc3Cl)c2C2CCNCC2)cc1 | inconclusive: 23.1 µM [inhibitor, single point] |  |
| C[C@@H]1[C@H](c2ccccc2)OCCS(=O)(=O)N1Cc1cccc(Cl)c1 | inconclusive: 35.5 µM [inhibitor, single point] |  |
| O=C(Nc1ccccc1)Nc1ccccc1 | inactive and active: 18.4 µM |  |
| O=C(O)CCCN1C(=O)/C(=C/c2ccc(-c3nc4ccccc4s3)o2)SC1=S | inconclusive: 18.4 µM [inhibitor, single point] |  |
| Cc1nn(-c2ccccc2)c2sc(C(=O)Nc3cccc(O)c3)cc12 | inconclusive: 29.1 µM [inhibitor, single point] |  |
| Cc1ccc(-c2nc(Nc3ccc(O)cc3)c3ccccc3n2)cc1 | inconclusive: 18.4 µM [inhibitor, single point] |  |
| COc1ccc(NC(=O)c2sc3nc(C)nc(N4CCN(c5ccccn5)CC4)c3c2C)c(OC)c1 | inconclusive: 20.6 µM [inhibitor, single point] |  |
| COc1cccc(CN2CC(C(=O)N3CCCO3)CCC2=O)c1 (stereo not given) |  | inactive: -12.6% |
| CCCS(=O)(=O)NC(=O)C1(C)CCCN(C(=O)c2c(F)ccc(C)c2F)C1 (stereo not given) |  | inactive: -1.56% |
| CC(=O)Nc1ccc(SC[C@H](Cc2ccccc2)N2CCN(CC(C)C)CCC2=O)cc1 | inconclusive: 18.4 µM [inhibitor, single point] |  |
| CC(=O)Nc1ccc(S(=O)(=O)N2CCN(CC3CC4C=CC3C4)CC2)cc1 (stereo not given) | inconclusive: 16.4 µM [inhibitor, single point] |  |
| CN(C)c1ccc(/C=C/c2ccnc3ccc(Cl)cc23)cc1 | inconclusive: 20 µM [inhibitor, single point] |  |
| Fc1ccc(C2CC(c3cccs3)=NN2C(=S)Nc2ccccc2)cc1 (stereo not given) | inconclusive: 29.1 µM [inhibitor, single point] |  |
| Cc1[nH]n(-c2ccccc2)c(=O)c1/C=N/NC(=O)c1cccc([N+](=O)[O-])c1 | active: 0.259 µM |  |
| O=C(COCc1cc(-c2ccc3c(c2)OCO3)on1)NCc1ccc(F)cc1 | inconclusive: 23.1 µM [inhibitor, single point] |  |
| COc1cc(C(C#N)N2CCC(c3ccccc3)=N2)ccc1O (stereo not given) | inconclusive: 32.6 µM [inhibitor, partial curve, poor fit] |  |
| CSc1ccc(CCNC(=O)c2ccc(CS(=O)Cc3ccc(Cl)cc3)o2)cc1 (stereo not given) | inconclusive: 18.4 µM [inhibitor, single point] and inconclusive: 20.6 µM [inhibitor, single point] |  |
| O=C(Cn1c2ccccc2c(=O)c2ccccc21)Nc1ccccc1F | active: 13 µM |  |
| CC(=O)NC(Cc1ccc(F)c(F)c1)C(=O)NC1CCN(c2c(Cc3ccccc3)c(C)nc3ncnn23)CC1 (stereo not given) | inconclusive: 32.6 µM [inhibitor, partial curve] |  |
| CCC1(O)CC(C(=O)OC)=NN1C(=O)c1ccccc1 (stereo not given) | inconclusive: 29.1 µM [inhibitor, single point] |  |
| Cc1oc(-c2ccccc2Cl)[n+]([O-])c1C | active: 14.6 µM |  |
| CCOc1cc(NC(=O)C(C)C)c(OCC)cc1NC(=O)Nc1ccccc1 | inconclusive: 11.6 µM [inhibitor, partial curve, poor fit] |  |
| COc1ccc(/C=C/C(=O)NCC(=O)N/N=C(/CCC(=O)O)c2ccccc2)cc1 |  | inactive: 0.262% |

| SMILES | Potency | activity change, negative = growth inhibition |
| --- | --- | --- |
| COc1cc(C2CC(=O)Nc3c2c(C)nn3-c2nncc(-c3ccccc3)n2)cc(OC)c1OC (stereo not given) | inconclusive: 2.91 µM [inhibitor, partial curve] |  |
| Cc1nc2ccc(NS(=O)(=O)c3ccc(Br)cc3)cc2s1 | active: 13 µM |  |
| O=C(CSc1nc(-c2cccs2)nc2cc(=O)[nH]n12)Nc1ccccc1Cl |  | inactive: -24.5% |
| Nc1[nH]c(C(=O)c2ccccc2)c(-c2cccc3ccccc23)c1C(=O)NCc1ccccc1 | inconclusive: 16.4 µM [inhibitor, single point] |  |
| Cc1cccc(-c2nc(CSCC(=O)N3CCN(c4cccc(C)c4C)CC3)c(C)o2)c1 | active: 18.4 µM |  |
| N#Cc1c(C(F)(F)F)cc(-c2cccs2)nc1SCc1cccnc1 | inconclusive: 20.6 µM [inhibitor, single point] |  |
| Cc1ccc(Cl)cc1NC(=O)c1cc(S(=O)(=O)N2CCCCCC2)cn1C | inconclusive: 20.6 µM [inhibitor, single point] |  |
| Cc1ccc(C)c(N2CCN(S(=O)(=O)c3cc(C(=O)Nc4cc(Cl)cc(Cl)c4)ccc3F)CC2)c1 | active: 11.6 µM |  |
| COc1cccc(-c2nc(=S)c3c(n2Cc2ccco2)CCCC3)c1 | active: 16.4 µM |  |
| CC(Sc1nnc(-c2cccnc2)n1N)C(=O)Nc1ccc2c(c1)OCCO2 (stereo not given) |  | inactive: -8.08% |
| Cc1cc(C(=O)N2CCN(C(c3ccccc3)c3ccccc3)CC2)on1 | active: 8.2 µM |  |
| Cc1ccc(-n2ncc3c2CC(C)(C)CC3NC(=O)CCc2cccnc2)cc1 (stereo not given) | active: 23.1 µM |  |
| CCOC(=O)c1c(NCC(C)C)c2ccccc2[nH]c1=O |  | inconclusive: -30.7% [inhibitor] |
| CN1CCc2c(n(CC(O)CN(CCO)CCO)c3ccccc23)C1=O (stereo not given) |  | inactive: 2.4% |
| COc1ccc(NN=Nc2nc3c([nH]2)c(=O)n(C)c(=O)n3C)cc1 | active: 20.6 µM |  |
| COc1cc(=O)oc(-c2ccccc2)c1C(C)=O |  | inactive: 19.2% |
| NC(=O)CCn1nc(-c2ccc(Cl)cc2)c2ccccc2c1=O | inconclusive: 29.1 µM [inhibitor, single point] |  |
| CCc1cccc(OCCOCCN2CCCC2)c1 |  | inactive: -9.74% |
| CC(C)(C)c1ccc(OCCC(=O)OCC(=O)N2c3ccccc3NC(=O)C2(C)C)cc1 | inconclusive: 29.1 µM [inhibitor, single point] |  |
| CC(C)c1cc(C(=O)OCC(=O)NC(=O)NCc2ccco2)c(O)c(C(C)C)c1 | inconclusive: 29.1 µM [inhibitor, single point] |  |
| O=C(Cc1nn[nH]n1)Nc1cc(Cl)cc(Cl)c1 |  | inactive: 1.55% |
| CSc1nc(N(C)NC(=O)c2ccc(F)cc2)c2ccccc2n1 | active: 0.58 µM |  |
| N=c1c(C(=O)NCc2ccccc2)cc2c(=O)n3ccccc3nc2n1Cc1ccco1 | inconclusive: 29.1 µM [inhibitor, single point] |  |
| O=C(Nc1ccc(F)cc1F)c1sccc1SCc1cccc(C(F)(F)F)c1 | inconclusive: 1.16 µM [inhibitor, partial curve] |  |

| SMILES | Potency | activity change, negative = growth inhibition |
| --- | --- | --- |
| CN(C)c1ccc(C(CNS(=O)(=O)c2ccc([N+](=O)[O-])cc2)N2CCCC2)cc1 (stereo not given) | inconclusive: 29.1 µM [inhibitor, single point] |  |
| CCC(CO)(CO)N(CC(=O)Nc1ccc(OC)cc1)CC(=O)Nc1ccc(OC)cc1 |  | inactive: -12.4% |
| O=C(OCc1cc(=O)n2nc(-c3cccs3)sc2n1)c1ccc(F)cc1 |  | inactive: -19.5% |
| CC(=O)N1CCc2c(sc(NC(=O)CCS(=O)(=O)c3ccc(C)cc3)c2C#N)C1 | inconclusive: 29.1 µM [inhibitor, single point] |  |
| NC(c1csc(Nc2cc(NCCCO)ncn2)n1)c1ccccc1Cl (stereo not given) | inconclusive: 29.1 µM [inhibitor, single point] |  |
| CCCOc1ccccc1N1C(=O)CC(N(O)c2ccccc2)C1=O (stereo not given) | inconclusive: 25.9 µM [inhibitor, single point] |  |
| CC(C)Oc1ccc(CSc2nnc3n(C)c(=O)c4c5c(sc4n23)CCCC5)cc1 | inconclusive: 29.1 µM [inhibitor, partial curve, poor fit] |  |
| CCN(c1ccccc1)c1nnc(NC(=O)Nc2ccc(C)cc2)s1 | active: 13 µM |  |
| O=C(Nc1nc(-c2ccccn2)cs1)c1cc(Cl)ccc1[N+](=O)[O-] | active: 0.82 µM |  |
| CCOc1cc(-c2noc(CCC(=O)Nc3cccnc3)n2)ccc1OC | inconclusive: 23.1 µM [inhibitor, single point] |  |
| Cc1ccc(N2C(=O)CS(=O)C(c3ccccc3)C2=O)cc1C (stereo not given) | inconclusive: 29.1 µM [inhibitor, single point] |  |
| O=C(c1cc(COc2cccc(C(F)(F)F)c2)on1)N1CCc2ccccc2C1 | inconclusive: 23.1 µM [inhibitor, single point] |  |
| Cc1ccc(O)c(/C=N/NC(=O)Cc2ccc(Cl)cc2)c1 | inconclusive: 25.9 µM [inhibitor, single point] |  |
| O=C(CC12CC3CC(CC(C3)C1)C2)NCC(c1ccc(F)cc1)N1CCOCC1 (stereo not given) | active: 25.9 µM |  |
| CCOc1ccccc1C(=O)Nc1nnc(C(C)C)s1 | inconclusive: 29.1 µM [inhibitor, single point] |  |
| Cn1nc(C(F)(F)F)c(-c2cccc(C(F)(F)F)c2)c1NC(=O)Nc1ccc(F)cc1 | active: 16.4 µM |  |
| COc1ccc(OC)c(NC(=O)COC(=O)c2n[nH]c3ccccc23)c1 | active: 20.6 µM |  |
| COc1ccc(-n2cnc3cc(NS(=O)(=O)c4ccccc4)ccc32)cc1 | inconclusive: 18.4 µM [inhibitor, single point] |  |
| CC12c3ccccc3C(c3ccccc31)C1C(=O)N(c3cccnc3)C(=O)C12 (stereo not given) | inconclusive: 16.4 µM [inhibitor, single point] |  |
| COc1ccc(N2C(=O)c3ccccc3NC(=O)C2C(=O)Nc2ccc3c(c2)OCCO3)cc1 (stereo not given) | inconclusive: 20.6 µM [inhibitor, single point] |  |
| COc1ccc(/C=C/c2nc(C#N)c(N3CCC(C)CC3)o2)cc1OC | active: 16.4 µM |  |
| N#CCCCn1c(=O)oc2ccccc21 |  | inactive: -3.05% |
